Common to all, as to assay: Primary Screen for Target Class Profiling of Small Molecule Inhibitors of Methyltransferases
The target of experiment [1] is Glycine N-methyltransferase (Homo sapiens) (UniProt Q14749). The note with it: purified enzyme, MTase-Glo SAH luminescence; measured here: GNMT inhibition; at 40 µM; stronger effect = lower value. In short, it runs like this: (§1)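 Each enzyme was assayed with SAM and its substrate. SAH formation detected by MTase-Glo luminescence; single-point 40 uM screen[…].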

In experiment [2] the target is Guanidinoacetate N-methyltransferase (Homo sapiens) (UniProt Q14353). Conditions: purified enzyme, MTase-Glo SAH luminescence; measured here: GAMT inhibition; at 40 µM; stronger effect = lower value. An outline of the steps: as §1
In experiment [3] the target is Histamine N-methyltransferase (Homo sapiens) (UniProt P50135). The note with it: purified enzyme, MTase-Glo SAH luminescence; measured here: HNMT inhibition; at 40 µM; stronger effect = lower value. In short, it runs like this:
as §1

Experiment [4] deals with Nicotinamide N-methyltransferase (Homo sapiens) (UniProt P40261). Conditions: purified enzyme, MTase-Glo SAH luminescence; measured here: NNMT inhibition; at 40 µM; stronger effect = lower value. An outline of the steps:
as §1

Experiment [5] addresses Phenylethanolamine N-methyltransferase (Homo sapiens) (UniProt P11086). Conditions: purified enzyme, MTase-Glo SAH luminescence; measured here: PNMT inhibition; at 40 µM; stronger effect = lower value. An outline of the steps:
as §1

The other results are listed elsewhere or left out. Further columns of the screen follow, without active or inactive calls.
On the % scale 0 is the no-effect control and ±100 the full control effect.

With `CC(=O)O[C@H]1C(=O)[C@]2(C)C(O)C[C@H]3OC[C@@]3(OC(C)=O)[C@H]2[C@H](OC(=O)c2ccccc2)[C@]2(O)C[C@H](O)C(C)=C1C2(C)C` (stereo partly drawn), the activity change, negative = inhibition in experiment [1] was -3.1%; in experiment [2], -12.3%; in experiment [3], 3.16%; in experiment [4], -22.6%; in experiment [5], -7.8%.
As for `NC(Cc1cc(O)c(O)cc1O)C(=O)O` (stereo not drawn), the activity change, negative = inhibition in experiment [1] was -70.5%; in experiment [2] it was -9.91%; in experiment [3] it was -29.7%; in experiment [4], -18.7%; in experiment [5], -5.92%.
Regarding `CC(=O)OC[C@]12C[C@H](OC(=O)CC(C)C)C(C)=C[C@H]1O[C@@H]1[C@H](O)[C@@H](OC(C)=O)[C@@]2(C)[C@@]12CO2`, the activity change, negative = inhibition in experiment [1] is -0.222%; in experiment [2], 5.62%; in experiment [3], 2.89%; in experiment [4], -9.33%; in experiment [5] it was 0.025%.
The matching figures for `COc1ccc(C2c3cccn3-c3ccccc3CN2C(=O)Nc2ccccc2Cl)cc1` (stereo not drawn): 8.27%, 1.56%, 3.18%, 0.773% and 5.37%.
With `CC(=O)Nc1ccc(OC[C@](C)(O)C(=O)Nc2ccc([N+](=O)[O-])c(C(F)(F)F)c2)cc1`, the activity change, negative = inhibition is -1.07% in experiment [1]; 2.52% in experiment [2]; 10.3% in experiment [3]; -11.7% in experiment [4]; 0.513% in experiment [5].
For `CCOC(=O)c1cccc(NC(=O)N2Cc3ccccc3-n3cccc3C2c2cccc(Cl)c2)c1` (stereo not drawn), the activity change, negative = inhibition is 11.7% in experiment [1]; 1.85% in experiment [2]; 5.99% in experiment [3]; -1.03% in experiment [4]; 8.55% in experiment [5].
Turning to `COC(=O)c1ccc(NC(=O)N2Cc3ccccc3-n3cccc3C2c2ccccc2Cl)cc1` (stereo not drawn), the activity change, negative = inhibition in experiment [1] is 5.77%; in experiment [2], 0%; in experiment [3] it was 8.66%; in experiment [4], -11%; in experiment [5] it was -1.07%.
`O=C(NCc1ccccc1)c1cn(C2CNC2)nn1`: the activity change, negative = inhibition in experiment [1] is -2.96%; in experiment [2] it was 1.17%; in experiment [3] it was -0.342%; in experiment [4], -7.5%; in experiment [5], 12.2%.
With `CCOC(=O)c1cccc(NC(=O)N2Cc3ccccc3-n3cccc3C2c2ccc(CC)cc2)c1` (stereo not drawn), the activity change, negative = inhibition was 7.44% in experiment [1]; 0% in experiment [2]; -1.24% in experiment [3]; -0.566% in experiment [4]; 6.03% in experiment [5].
For `CC(N)Cc1c[nH]c2ccc(O)cc12` (stereo not drawn), the activity change, negative = inhibition in experiment [1] is -6.84%; in experiment [2], 9.2%; in experiment [3], -9.12%; in experiment [4], -4.15%; in experiment [5] it was 2.28%.
As for `C[C@H]1CC[C@@H]2[C@@H](C)[C@H]3[C@H](C[C@H]4[C@@H]5CC=C6CC(O[C@@H]7O[C@H](CO)[C@@H](O)[C@H](O[C@@H]8O[C@H](CO)[C@@H](O)[C@H](O)[C@H]8O)[C@@H]7O[C@@H]7O[C@@H](C)[C@H](O)[C@@H](O)[C@H]7O)CC[C@]6(C)[C@H]5CC[C@]34C)N2C1` (stereo partly drawn), the activity change, negative = inhibition was 0% in experiment [1]; 4.99% in experiment [2]; 3.06% in experiment [3]; -7.47% in experiment [4]; 6.98% in experiment [5].
With `CN(N=O)c1cc(O)ccc1O`, the activity change, negative = inhibition in experiment [1] was -75.2%; in experiment [2], -32.4%; in experiment [3] it was -1.71%; in experiment [4] it was -16.2%; in experiment [5], -57.4%.
Turning to `O=C1CO[C@H]2CN(Cc3ccccc3)C[C@H]2N1Cc1cccnc1`, the activity change, negative = inhibition in experiment [1] was 0.77%; in experiment [2] it was 1.9%; in experiment [3], 1.66%; in experiment [4], -2.03%; in experiment [5], 16.8%.
The matching figures for `CC1CCCC(O)CCC/C=C/c2cc(O)cc(O)c2C(=O)O1` (stereo not drawn): 0.096%, 3.87%, 5.94%, -16.3% and -4.21%.
Turning to `CN(C)c1ccc(C2c3cccn3-c3ccccc3CN2C(=O)Nc2cccc(C(F)(F)F)c2)cc1` (stereo not drawn), the activity change, negative = inhibition was determined as 14.4% in experiment [1]; 1.26% in experiment [2]; 3.94% in experiment [3]; 10.6% in experiment [4]; 10.1% in experiment [5].
`N#CC(O[C@@H]1O[C@H](CO[C@@H]2O[C@H](CO)[C@@H](O)[C@H](O)[C@H]2O)[C@@H](O)[C@H](O)[C@H]1O)c1ccccc1` (stereo partly drawn): the activity change, negative = inhibition is -1.85% in experiment [2], -14.7% in experiment [4] and 2.73% in experiment [5].
With `COc1ccc(Cl)cc1NC(=O)N1Cc2ccccc2-n2cccc2C1c1ccccc1` (stereo not drawn), the activity change, negative = inhibition is 2.66% in experiment [1]; 2.47% in experiment [2]; -5.02% in experiment [3]; -7.43% in experiment [4]; 0.314% in experiment [5].
In the case of `CSc1ccc(C2c3cccn3-c3ccccc3CN2C(=O)Nc2cccc(C)c2C)cc1` (stereo not drawn), the activity change, negative = inhibition was -0.011% in experiment [1]; 2.4% in experiment [2]; 2.6% in experiment [3]; -3.23% in experiment [4]; 2.47% in experiment [5].
Turning to `CC(C)C1(OO)C=C2C(=O)CC3C(C)(C(=O)O)CCCC3(C)C2CC1` (stereo not drawn), the activity change, negative = inhibition was -0.165% in experiment [1]; -2.15% in experiment [2]; 9.73% in experiment [3]; -14.7% in experiment [4]; -11.1% in experiment [5].
With `CCCN(CCC)C1CCc2ccc(O)cc2C1` (stereo not drawn), the activity change, negative = inhibition in experiment [1] is -1.78%; in experiment [2], 8.01%; in experiment [3] it was -66.7%; in experiment [4], -4.45%; in experiment [5], 10.4%.
In the case of `c1ccc(C2(c3ccccc3)CC2C2=NCCN2)cc1` (stereo not drawn), the activity change, negative = inhibition is 4.29% in experiment [1]; 7.06% in experiment [2]; -11.3% in experiment [3]; -12.1% in experiment [4]; 3.45% in experiment [5].
Turning to `COc1ccc(C2c3cccn3-c3ccccc3CN2C(=O)Nc2ccc(F)cc2)cc1OC` (stereo not drawn), the activity change, negative = inhibition in experiment [1] was 8.28%; in experiment [2], 1.22%; in experiment [3], 3.82%; in experiment [4], 2%; in experiment [5], 6.93%.
Turning to `N#CC(O[C@@H]1O[C@H](CO)[C@@H](O)[C@H](O)[C@H]1O)c1ccccc1` (stereo partly drawn), the activity change, negative = inhibition in experiment [1] was 2.66%; in experiment [2], 6.72%; in experiment [3] it was 6.94%; in experiment [4] it was -8.33%; in experiment [5], 6.4%.
Turning to `O=C(NCc1ccccc1)N1Cc2ccccc2-n2cccc2C1c1cc(F)cc(F)c1` (stereo not drawn), the activity change, negative = inhibition in experiment [1] amounted to 7.9%; in experiment [2] it was 0%; in experiment [3] it was 6.09%; in experiment [4], 3.51%; in experiment [5] it was 4.17%.
For the molecule `CN(C)c1ccc(C2c3cccn3-c3ccccc3CN2C(=O)Nc2cccc3c2CCCC3)cc1` (stereo not drawn), the activity change, negative = inhibition in experiment [1] was 0.917%; in experiment [2], 5.55%; in experiment [3] it was -9.2%; in experiment [4], -6.01%; in experiment [5], 0.246%.
For the molecule `CCOc1ccc(C2c3cccn3-c3ccccc3CN2C(=O)Nc2ccc(C)c(F)c2)cc1` (stereo not drawn), the activity change, negative = inhibition in experiment [1] was found to be 0.002%; in experiment [2] it was 0%; in experiment [3] it was 6%; in experiment [4] it was 2.93%; in experiment [5], 2.74%.
As to `[Cl-].[Cl][Pt].[NH2-].[NH2-].c1ccncc1`, the activity change, negative = inhibition was -93.7% in experiment [1]; 7.69% in experiment [2]; -0.062% in experiment [3]; -5.09% in experiment [4]; 7.17% in experiment [5].
Taken in the same sequence, the figures for `CCc1ccccc1NC(=O)N1Cc2ccccc2-n2cccc2C1CC` (stereo not drawn) were -11%, 0%, -2.17%, -4.26% and 2.04%.
Consider `C=C[C@H]1CN2CC[C@H]1C[C@@H]2CNCc1ccc2c(c1)OCO2`, for which the activity change, negative = inhibition in experiment [1] is -5.64%; in experiment [2], -3.84%; in experiment [3], -28%; in experiment [4] it was -8.64%; in experiment [5], -0.782%.

(Values after PubChem BioAssay AID1745853 (National Center for Advancing Translational Sciences (NCATS), 2022).)
